In experiment [1] the target is microtubule associated protein-2 (MAP2) (mouse (endogenous in hippocampus)) (UniProt P20357). The experiment can be described thus: co-IP; hippocampal extracts of WT, D36 or AKAP5 KO mice (1.0% Triton X-100, 0.5% DOC lysis; diluted to 0.1% Triton X-100); antibodies overnight at 4°C, Protein G magnetic beads, three washes; Western blot. On the technique in general: Immunoblotting shows a protein as a band on a membrane.

The chains behind the UniProt entries cited, without tags or fusion partners.
UniProt P20357: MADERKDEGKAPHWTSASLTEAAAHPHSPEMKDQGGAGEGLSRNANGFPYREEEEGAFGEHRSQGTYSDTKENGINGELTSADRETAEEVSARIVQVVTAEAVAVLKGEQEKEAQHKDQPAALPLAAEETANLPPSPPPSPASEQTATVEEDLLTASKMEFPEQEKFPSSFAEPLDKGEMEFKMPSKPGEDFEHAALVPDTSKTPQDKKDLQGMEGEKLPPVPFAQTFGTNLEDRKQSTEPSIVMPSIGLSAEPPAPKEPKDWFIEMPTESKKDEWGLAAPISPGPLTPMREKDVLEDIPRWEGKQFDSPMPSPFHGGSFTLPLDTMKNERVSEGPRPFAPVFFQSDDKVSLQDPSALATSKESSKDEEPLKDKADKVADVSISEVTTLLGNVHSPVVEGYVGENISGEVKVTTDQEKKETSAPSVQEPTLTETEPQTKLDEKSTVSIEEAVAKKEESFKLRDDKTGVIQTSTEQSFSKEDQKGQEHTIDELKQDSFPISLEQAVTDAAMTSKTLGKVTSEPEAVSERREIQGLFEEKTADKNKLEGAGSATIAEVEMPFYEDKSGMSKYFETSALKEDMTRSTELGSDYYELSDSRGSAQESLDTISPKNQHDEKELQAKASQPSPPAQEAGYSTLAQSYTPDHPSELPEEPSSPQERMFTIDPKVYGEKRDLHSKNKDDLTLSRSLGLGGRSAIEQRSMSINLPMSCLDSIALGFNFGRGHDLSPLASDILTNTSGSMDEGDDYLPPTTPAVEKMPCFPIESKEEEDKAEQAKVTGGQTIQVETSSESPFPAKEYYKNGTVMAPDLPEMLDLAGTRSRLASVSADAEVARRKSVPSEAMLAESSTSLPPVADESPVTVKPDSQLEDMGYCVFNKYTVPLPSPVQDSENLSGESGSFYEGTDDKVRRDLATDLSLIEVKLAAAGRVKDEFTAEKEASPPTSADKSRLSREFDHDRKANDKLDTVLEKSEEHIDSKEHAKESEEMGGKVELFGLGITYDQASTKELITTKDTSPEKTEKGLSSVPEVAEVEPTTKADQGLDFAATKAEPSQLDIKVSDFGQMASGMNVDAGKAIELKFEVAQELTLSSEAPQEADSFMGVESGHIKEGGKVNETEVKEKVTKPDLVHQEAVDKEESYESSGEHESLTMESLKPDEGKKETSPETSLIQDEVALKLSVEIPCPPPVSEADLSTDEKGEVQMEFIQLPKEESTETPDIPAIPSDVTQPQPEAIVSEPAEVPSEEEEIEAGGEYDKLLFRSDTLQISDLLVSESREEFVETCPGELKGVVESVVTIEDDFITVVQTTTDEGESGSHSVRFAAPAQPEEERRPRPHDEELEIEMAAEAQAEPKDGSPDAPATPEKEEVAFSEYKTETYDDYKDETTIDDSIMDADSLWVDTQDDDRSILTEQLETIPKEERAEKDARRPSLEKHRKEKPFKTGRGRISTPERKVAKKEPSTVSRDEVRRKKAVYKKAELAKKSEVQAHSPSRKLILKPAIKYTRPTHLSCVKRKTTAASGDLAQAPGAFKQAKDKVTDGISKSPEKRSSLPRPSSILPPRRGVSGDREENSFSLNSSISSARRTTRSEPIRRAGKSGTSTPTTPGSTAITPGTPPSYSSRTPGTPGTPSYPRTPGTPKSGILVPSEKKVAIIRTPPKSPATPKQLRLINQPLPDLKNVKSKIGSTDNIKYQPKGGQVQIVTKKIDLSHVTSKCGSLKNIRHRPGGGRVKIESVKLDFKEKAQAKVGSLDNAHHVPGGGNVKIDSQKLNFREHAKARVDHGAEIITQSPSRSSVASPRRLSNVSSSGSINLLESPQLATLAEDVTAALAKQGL
UniProt P12367: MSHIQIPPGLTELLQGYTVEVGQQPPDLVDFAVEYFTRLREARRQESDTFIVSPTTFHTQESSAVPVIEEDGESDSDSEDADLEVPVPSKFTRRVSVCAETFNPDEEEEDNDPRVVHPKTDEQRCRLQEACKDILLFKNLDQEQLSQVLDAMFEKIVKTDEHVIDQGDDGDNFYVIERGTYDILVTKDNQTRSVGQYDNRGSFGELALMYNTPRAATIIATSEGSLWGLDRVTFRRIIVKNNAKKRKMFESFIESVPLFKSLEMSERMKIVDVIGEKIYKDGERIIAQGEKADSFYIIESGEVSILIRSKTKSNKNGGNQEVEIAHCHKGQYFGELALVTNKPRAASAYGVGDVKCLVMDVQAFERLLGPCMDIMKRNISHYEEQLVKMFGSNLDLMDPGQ
UniProt P31324: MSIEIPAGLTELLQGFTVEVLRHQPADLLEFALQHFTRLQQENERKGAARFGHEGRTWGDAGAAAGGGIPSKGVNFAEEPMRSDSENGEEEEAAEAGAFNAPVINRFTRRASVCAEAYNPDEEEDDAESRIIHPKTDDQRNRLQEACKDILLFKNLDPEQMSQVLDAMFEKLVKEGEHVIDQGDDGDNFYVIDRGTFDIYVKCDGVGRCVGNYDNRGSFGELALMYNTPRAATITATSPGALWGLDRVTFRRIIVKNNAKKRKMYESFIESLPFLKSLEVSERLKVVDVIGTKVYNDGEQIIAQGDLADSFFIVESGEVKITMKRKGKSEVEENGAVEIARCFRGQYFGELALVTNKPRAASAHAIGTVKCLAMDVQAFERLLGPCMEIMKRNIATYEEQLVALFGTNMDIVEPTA

Experiment [2] has as its target T1, AKAP5 D36 mutant protein (mouse (endogenous in hippocampus of D36 knock-in mice)) (UniProt D3YVF0).
T1 sequence: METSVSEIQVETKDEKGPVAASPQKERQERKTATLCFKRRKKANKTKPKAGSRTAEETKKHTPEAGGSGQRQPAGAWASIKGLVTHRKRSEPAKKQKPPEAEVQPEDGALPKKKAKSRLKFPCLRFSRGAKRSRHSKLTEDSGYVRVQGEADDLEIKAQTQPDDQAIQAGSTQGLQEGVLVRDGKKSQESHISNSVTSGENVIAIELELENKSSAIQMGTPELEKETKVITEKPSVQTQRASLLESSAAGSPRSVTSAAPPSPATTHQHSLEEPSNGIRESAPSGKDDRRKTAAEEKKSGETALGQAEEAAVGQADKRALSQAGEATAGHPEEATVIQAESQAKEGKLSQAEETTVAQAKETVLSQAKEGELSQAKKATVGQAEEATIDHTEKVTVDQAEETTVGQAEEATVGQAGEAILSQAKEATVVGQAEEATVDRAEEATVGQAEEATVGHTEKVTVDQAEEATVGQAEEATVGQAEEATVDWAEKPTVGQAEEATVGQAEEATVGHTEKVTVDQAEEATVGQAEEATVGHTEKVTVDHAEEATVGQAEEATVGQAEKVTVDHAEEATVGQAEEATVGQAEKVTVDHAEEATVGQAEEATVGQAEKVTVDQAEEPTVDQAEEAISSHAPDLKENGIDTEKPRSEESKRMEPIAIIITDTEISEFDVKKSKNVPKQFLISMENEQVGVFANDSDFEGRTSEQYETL
Described as above.

Experiment [3] deals with T2, AKAP5 (wild type) (mouse (endogenous in hippocampus and striatum)) (UniProt D3YVF0).
T2 sequence: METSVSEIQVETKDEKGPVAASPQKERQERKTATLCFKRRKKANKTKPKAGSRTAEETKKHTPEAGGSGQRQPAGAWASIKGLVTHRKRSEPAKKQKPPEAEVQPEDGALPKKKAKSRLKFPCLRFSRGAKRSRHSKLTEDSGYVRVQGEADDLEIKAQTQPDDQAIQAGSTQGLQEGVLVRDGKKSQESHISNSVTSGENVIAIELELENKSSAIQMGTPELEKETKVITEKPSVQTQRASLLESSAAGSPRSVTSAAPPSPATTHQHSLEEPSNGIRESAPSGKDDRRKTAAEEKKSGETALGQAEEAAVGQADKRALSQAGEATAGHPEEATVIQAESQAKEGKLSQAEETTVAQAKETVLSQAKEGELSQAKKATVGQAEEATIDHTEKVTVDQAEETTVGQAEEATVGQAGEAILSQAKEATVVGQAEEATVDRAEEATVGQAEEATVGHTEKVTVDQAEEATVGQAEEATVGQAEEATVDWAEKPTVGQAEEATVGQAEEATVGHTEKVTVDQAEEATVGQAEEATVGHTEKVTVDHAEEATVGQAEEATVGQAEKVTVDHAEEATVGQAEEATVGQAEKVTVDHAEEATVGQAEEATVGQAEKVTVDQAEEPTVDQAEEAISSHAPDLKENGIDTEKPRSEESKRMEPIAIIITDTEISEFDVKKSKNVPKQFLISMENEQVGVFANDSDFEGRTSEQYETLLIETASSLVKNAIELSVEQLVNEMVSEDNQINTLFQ
Described as above.

The target of experiment [4] is T2, AKAP5 (wild type) (mouse (endogenous in hippocampus and striatum)). The experiment can be described thus: far-Western, overlay or dot blot; RII overlay: WT or KO hippocampal or striatal extracts separated by SDS-PAGE and blotted on nitrocellulose; recombinant RIIβ at 7 nM (methods: 7 nM or 70 nM) in 5% BSA/TBST, 2 hrs at room temperature, with 0.15 µM Ht-31 or control peptide Ht-31P; detected with antibody against RIIβ; only the binder purified.

Experiment [5] addresses PKA regulatory subunit RIIα (mouse (endogenous in hippocampus)) (UniProt P12367). The experiment can be described thus: co-IP; hippocampal extracts of WT, D36 or AKAP5 KO mice (1.0% Triton X-100, 0.5% DOC lysis; diluted to 0.1% Triton X-100); antibodies overnight at 4°C, Protein G magnetic beads, three washes; Western blot.

The values that follow come from paper PMC2859064.

No constants are given. Whether binding was seen depends on the method and setting. For part of these data: Binding seen in cells or lysates may run through a third protein. Some entries that bind do so weakly or less than the wild type.

“PKA regulatory subunit RIIα (from UniProt P12367 1-401)”: the binding result was “binds” in experiment [1], “no binding” in experiment [2] and “binds” in experiment [3].

On to “microtubule associated protein-2 (MAP2) (from UniProt P20357 1-1828)”, for which, in experiment [3], the binding entry is recorded as “binds weakly”.

As to “recombinant RIIβ (from UniProt P31324 1-416)”, in experiment [4], the binding result was “binds”.

B1: AKAP5 D36 mutant protein (domain or fragment, UniProt D3YVF0 1-709)
chain: METSVSEIQVETKDEKGPVAASPQKERQERKTATLCFKRRKKANKTKPKAGSRTAEETKKHTPEAGGSGQRQPAGAWASIKGLVTHRKRSEPAKKQKPPEAEVQPEDGALPKKKAKSRLKFPCLRFSRGAKRSRHSKLTEDSGYVRVQGEADDLEIKAQTQPDDQAIQAGSTQGLQEGVLVRDGKKSQESHISNSVTSGENVIAIELELENKSSAIQMGTPELEKETKVITEKPSVQTQRASLLESSAAGSPRSVTSAAPPSPATTHQHSLEEPSNGIRESAPSGKDDRRKTAAEEKKSGETALGQAEEAAVGQADKRALSQAGEATAGHPEEATVIQAESQAKEGKLSQAEETTVAQAKETVLSQAKEGELSQAKKATVGQAEEATIDHTEKVTVDQAEETTVGQAEEATVGQAGEAILSQAKEATVVGQAEEATVDRAEEATVGQAEEATVGHTEKVTVDQAEEATVGQAEEATVGQAEEATVDWAEKPTVGQAEEATVGQAEEATVGHTEKVTVDQAEEATVGQAEEATVGHTEKVTVDHAEEATVGQAEEATVGQAEKVTVDHAEEATVGQAEEATVGQAEKVTVDHAEEATVGQAEEATVGQAEKVTVDQAEEPTVDQAEEAISSHAPDLKENGIDTEKPRSEESKRMEPIAIIITDTEISEFDVKKSKNVPKQFLISMENEQVGVFANDSDFEGRTSEQYETL
Regarding B1, in experiment [5], the binding result is recorded as “no binding”.
